PubChem BioAssay AID1030 (National Center for Advancing Translational Sciences (NCATS), 2008)
Screen size: about 220,000 compounds; about 16,000 (7.3%) were called active. The inconclusive results got no clear call from the source; some entries with a clear call stand among them for comparison. The call rests on the fitted dose curve; in most records, active means well fitted inhibition curve with a large enough effect (not every such curve was filed as active); inconclusive means small, poorly fitted or top-dose-only effect, or another doubt; inactive means no such curve, though single readings can be large or run the other way. No potency is given beside an inconclusive call; the fits are too rough.

Target: Aldehyde dehydrogenase 1A1 (Homo sapiens) (UniProt P00352)
Assay: qHTS Assay for Inhibitors of Aldehyde Dehydrogenase 1 (ALDH1A1);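 on activity, negative = inhibition: plate controls were no enzyme wells and a reference inhibitor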
Details: Purified ALDH1A1, NADH fluorescence, propionaldehyde substrate; series mostly up to 75.3 µM; activity, negative = inhibition: at the top concentration
Potency means the concentration at half of the fitted maximal effect; tags describe the fitted curve by direction and shape.

UniProt P00352, sequence (P00352 whole entry, looked up): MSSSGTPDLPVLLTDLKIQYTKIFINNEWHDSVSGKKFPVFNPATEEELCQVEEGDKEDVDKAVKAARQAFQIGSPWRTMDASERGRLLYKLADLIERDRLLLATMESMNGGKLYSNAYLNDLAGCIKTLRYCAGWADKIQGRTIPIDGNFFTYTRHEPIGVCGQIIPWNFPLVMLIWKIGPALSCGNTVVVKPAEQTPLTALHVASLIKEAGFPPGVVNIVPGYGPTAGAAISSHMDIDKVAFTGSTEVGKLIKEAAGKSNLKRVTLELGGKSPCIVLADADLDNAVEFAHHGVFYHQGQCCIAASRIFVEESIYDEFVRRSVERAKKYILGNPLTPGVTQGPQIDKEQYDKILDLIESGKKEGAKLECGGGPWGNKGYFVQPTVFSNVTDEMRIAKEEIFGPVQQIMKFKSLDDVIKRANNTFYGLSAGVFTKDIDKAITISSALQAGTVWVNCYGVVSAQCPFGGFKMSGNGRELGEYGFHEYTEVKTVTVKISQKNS

Structure (SMILES)	Potency	activity, negative = inhibition
O=C(CSc1nnc(Cc2ccccc2)o1)N1CCCc2ccccc21	active: 17.8 µM	–
CCCCCCNC(=O)c1c(O)c2ccccc2[nH]c1=O	–	inactive: 4.88%
CCOc1ccccc1OCCn1ncc2ccc(OC)c(OC)c2c1=O	inconclusive [inhibitor, single point]	–
CCN1C(=O)c2ccccc2S(=O)c2ccc(C(=O)NCCCN3CCCC3=O)cc21 (stereo not drawn)	–	inactive: 5.16%
COc1cccc(C(=O)CSc2nc3cccnc3n2C)c1	inconclusive [inhibitor, single point]	–
CC(C)C(=O)Nc1ccc(NC(=O)c2ccccn2)cn1	inconclusive [inhibitor, single point]	–
COc1ccc(NS(=O)(=O)c2cc(OC)ccc2NC(=O)c2cc(C)oc2C)cc1	active: 3.16 µM	–
COc1ccc(S(=O)(=O)N(Cc2ccccc2)Cc2nc3ccccc3c(=O)[nH]2)cc1	active: 6.31 µM	–
O=C(COC(=O)c1c2c(nc3ccccc13)CCCC2)c1cccs1	inconclusive [inhibitor, single point]	–
CC(C)CCOc1ccc(C(=O)CCNC(C)C(=O)O)cc1 (stereo not drawn)	active: 0.126 µM	–
CCOc1cc(/C=C/C(=O)c2ccc(C)cc2)ccc1OCC(=O)N(C)C	inconclusive [inhibitor, single point]	–
O=C(/C=C/c1cn(-c2ccccc2)nc1-c1ccc2c(c1)OCCO2)NCCO	inconclusive [inhibitor, single point]	–
Cc1cc(C)n(-c2ccc(C(=O)OCC(=O)Nc3ccc(S(=O)(=O)N4CCCCC4)cc3)cc2)n1	inconclusive [inhibitor, single point]	–
COCCSc1ccccc1C(=O)N1CCOCC1	–	inactive: -15.2%
CC[C@H]1C(c2ccc(F)cc2)=NN(c2ccccc2)[C@@H]1CO	inconclusive [inhibitor, partial curve]	–
CCCCn1c(=O)[nH]c(=O)c2c1nc(-c1ccsc1)n2Cc1ccccc1	inconclusive [inhibitor, single point]	–
CCCS(=O)(=O)c1nc(S(=O)(=O)c2ccc(C)cc2)c(N2CCCC2)s1	active: 7.94 µM	–
CS(=O)(=O)c1ncc(Cl)c(C(=O)Nc2ccc(N3CCOCC3)cc2)n1	active: 10 µM	–
O=C(NCc1ccc(Cl)cc1)C(=O)NCC1OCCN1C(=O)c1cccs1 (stereo not drawn)	–	inactive: 14.5%
COc1cccc(NC(=O)c2ccc(S(=O)(=O)N(C)C)cc2)c1	inconclusive [inhibitor, single point]	–
Cc1ccc(C2CC(=O)Oc3cc(C)c(Br)c(C)c32)cc1 (stereo not drawn)	–	inactive: 13.3%
COc1ccc(C)cc1NC(=O)C(OC(=O)c1ccc(Cl)c(S(=O)(=O)N(C)c2ccccc2)c1)c1ccccc1 (stereo not drawn)	–	inactive: -0.773%
COc1ccccc1-n1cnc2cc(NS(=O)(=O)c3ccccc3)ccc21	inconclusive [inhibitor, partial curve]	–
O=C(c1sc2ccccc2c1Cl)N(Cc1ccccc1Cl)C1CCS(=O)(=O)C1 (stereo not drawn)	inconclusive [inhibitor, single point]	–

Structure (SMILES)	Potency	activity, negative = inhibition
CSc1ccc(-c2ccco2)nn1	inconclusive [inhibitor, partial curve]	–
CCN(CC(=O)Nc1sc2c(c1C#N)CCC(C)C2)Cc1nc2ccccc2c(=O)[nH]1 (stereo not drawn)	active: 25.1 µM	–
O=C1N=c2ccccc2=C1c1[nH]c(=S)[nH]c1O	active: 11.2 µM	–
Cc1ccc2c(C(=O)CN3CCCCC3CCO)c(C)[nH]c2c1 (stereo not drawn)	inconclusive [inhibitor, single point]	–
O=C(Nc1nc2n(n1)C(c1ccc(F)cc1)CC(c1ccccc1)N2)c1ccco1 (stereo not drawn)	–	inactive: 1.42%
Fc1c(F)c(F)c(N/N=C/c2c[nH]c3ccccc23)c(F)c1F	active: 31.6 µM	–
COc1ccc(NC(=O)COC(=O)CNC(=O)C2CCCCC2)cc1	–	inactive: 9.02%
CCCCn1c(=O)n(Cc2cccc(F)c2)c(=O)c2c1ncn2Cc1ccco1	inconclusive [inhibitor, single point]	–
CCOc1ccc(N2C(=O)CC(Sc3n[nH]c(-c4ccccc4)n3)C2=O)cc1 (stereo not drawn)	active: 0.447 µM	–
CCOc1ccc(-n2c(SCc3cc(=O)oc4cc(C)c(C(C)C)cc34)nnc2-c2cccnc2)cc1	inconclusive [inhibitor, single point]	–
COC(=O)C1=NN(N=O)C2(CC(=O)N(c3cc(C)cc(C)c3)C2=O)C1 (stereo not drawn)	active: 8.91 µM	–
CCOc1ccc(NC(=O)CCC(=O)NNC(=O)Nc2ccc(Cl)cc2)cc1	–	inactive: 8.16%
CCN(CC)C(=O)CSc1nc2ccccc2c(=O)n1OC	inconclusive [inhibitor, partial curve]	–
CCCc1cc2c(n1Cc1ccc(OC)cc1)C(C)C1CN(C(=O)c3ccccc3)C(C)(C(=O)OC)C21 (stereo not drawn)	inconclusive [inhibitor, single point]	–
Cc1ccc(N/N=C(\C#N)C(N)=S)cc1C	inconclusive [inhibitor, single point]	–
COC(=O)c1cc(C(=O)c2ccc(Cl)cc2)n2c(=O)/c(=C\N(C)C)sc12	active: 0.251 µM	–
COc1ccc(C/C(N)=N/OC(=O)Cc2ccccc2)cc1	inconclusive [inhibitor, single point]	–
COC(=O)CC1C(=O)NCCN1C(=O)NC1CCCCC1 (stereo not drawn)	–	inactive: -1.35%
CCCCCCc1c(O)nc(SCCN2CCOCC2)[nH]c1=O	–	inactive: 6.07%
COc1ccc(C(=O)N2CCN(C(=O)c3ccco3)CC2)cc1	inconclusive [inhibitor, single point]	–
CCOC(=O)Cc1c(C)c2ccc(N(CC)CC)cc2oc1=O	inconclusive [inhibitor, partial curve]	–
COc1cc(/C=N/n2c(SC)nnc(C(C)(C)C)c2=O)ccc1O	–	inactive: 7.52%
Cc1cc(/C=N/NC(=O)c2cccc([N+](=O)[O-])c2)c(C)n1-c1ccccc1	inconclusive [inhibitor, single point]	–
O=C(c1ccco1)N1CCN(C(c2ccc(Cl)cc2)c2nnnn2CC2CCCO2)CC1 (stereo not drawn)	inconclusive [inhibitor, partial curve]	–
